# Laboratory results as given in the supplement of paper PMC7335073.
# Over roughly 4,100 sequences, “relative CpG methylation activity (normalised to average over all NNNCGNNN flanks)” has its median near 0.87; the highest 2% begin near 2.4. This is one part of the list.
# Molecular target: DNMT3A catalytic domain (mouse) (UniProt O88508)
# Test: relative CpG methylation activity (normalised to average over all NNNCGNNN flanks) (relative (1 = mean)); higher = more methylation of the central CpG
# Conditions: system: in vitro, murine catalytic domain; CpG state: hemimethylated substrate pool; residues: 608-908
# Summary of the method: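 Each experiment was done in two independent repeats, using pooled dsDNA substrates with a central CpG flanked by 10 random nucleotides, methylated for 60 min at 37 °C by the murine DNMT3A or DNMT3B catalytic domain with 0.8 mM S-adenosyl-L-methionine in HEPES pH 7.5 buffer. After bisulfite conversion and PCR, the DNA was read by Illumina sequencing. Methylation was averaged per context, defined by three bases on each side of the CpG. Relative methylation activity is each context's average methylation over the mean of all contexts.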
row,Sequence,relative CpG methylation activity
1,TACCGCGC,0.548
2,CTTCGGGA,0.733
3,CCGCGTGA,0.541
4,AGCCGACG,0.811
5,GTCCGATT,1.67
6,ACGCGGCT,0.894
7,TATCGTCA,1.29
8,TTGCGCGT,1.26
9,GCTCGGTT,0.942
10,TGCCGTCT,1.28
11,ACCCGACA,1.55
12,ATACGGGA,1.52
13,AGACGATG,0.457
14,ATCCGACA,1.72
15,AACCGTCC,1.68
16,TAGCGCAA,0.378
17,GTGCGCTC,2.03
18,CGCCGCGG,0.187
19,CCTCGGGG,0.25
20,CTACGGAT,1.52
21,AATCGAAT,0.174
22,TGGCGGTG,0.106
23,TTTCGTAA,1.87
24,TGACGCAC,0.88
25,GCTCGATG,0.561

row,Sequence,relative CpG methylation activity
1,ACGCGGTC,0.775
2,GCGCGGTG,0.634
3,CGCCGTTT,0.424
4,CAGCGTGC,0.327
5,CTTCGGTT,0.352
6,ATCCGTTC,1.56
7,GCACGCTT,2.12
8,TGCCGCGC,0.766
9,AATCGATA,0.42
10,GCGCGTAT,0.508
11,AGACGCCC,1.43
12,TAACGTGA,0.233
13,AACCGTAG,0.515
14,TCGCGACG,0.6
15,GACCGCAT,0.94
16,GTCCGGCG,1.49
17,AAACGTGT,0.156
18,ATTCGAGT,0.6
19,CTGCGATA,1.15
20,TCCCGAGT,0.977
21,CCGCGCTT,1.93
22,GTTCGCTT,1.58
23,CCTCGACT,0.872
24,CTCCGAAC,2.33
25,CGTCGACA,0.422

row,Sequence,relative CpG methylation activity
1,CCCCGTTG,0.874
2,GAGCGAGC,1.32
3,ATACGATG,1.3
4,TGCCGGCG,0.402
5,GATCGCTG,0.672
6,GACCGCCG,1.18
7,CGGCGGTT,0.238
8,TACCGAGC,1.23
9,CAACGTTC,0.87
10,GTGCGCGC,1.74
11,TGGCGGTA,0.312
12,TCCCGAAC,1.53
13,TAGCGAAC,0.705
14,ATCCGGTT,1.34
15,TGGCGTGG,0.185
16,CGCCGCAT,0.658
17,TTCCGCAG,0.954
18,AGGCGACG,0.412
19,TGACGGTT,0.398
20,GTGCGCTT,2.47
21,TTGCGACG,1.23
22,GTGCGGAG,0.7
23,GATCGTGG,0.0746
24,CACCGGAA,0.755
25,CACCGATG,0.558

row,Sequence,relative CpG methylation activity
1,CTTCGGGC,1.16
2,TGGCGCTG,0.656
3,AATCGCCG,0.966
4,CACCGTCC,1.64
5,GACCGGTG,0.677
6,AAGCGACA,0.602
7,TTACGAAT,1.54
8,GCACGATA,1.23
9,TGTCGAGT,0.575
10,TGGCGGAG,0.208
11,CATCGGAC,0.718
12,CGTCGCCG,1.14
13,CCGCGCGT,0.827
14,AACCGCTG,1.01
15,CTACGAAT,1.41
16,TAGCGGGT,0.231
17,GCGCGATG,0.728
18,GTCCGATG,1.11
19,CTACGTTT,1.6
20,TTCCGGGA,1.43
21,ATTCGGCC,1.19
22,TGCCGGAT,0.476
23,CGCCGCGT,0.547
24,GGTCGACA,0.357
25,CCACGCTT,2.06

row,Sequence,relative CpG methylation activity
1,GTACGCTG,1.88
2,ACGCGAGT,0.94
3,AGGCGTGT,0.119
4,ACTCGTCT,1.48
5,TGACGATC,0.957
6,TACCGCCC,1.65
7,GCCCGCGG,0.291
8,TGACGGAG,0.197
9,TTACGAGC,2.12
10,CGGCGGAT,0.495
11,GACCGCTC,1.78
12,TACCGTAT,0.614
13,GTTCGGAC,1.19
14,TTCCGTAA,1.96
15,GCGCGATA,0.71
16,TACCGGTC,0.846
17,AGACGTTA,0.635
18,CGCCGCTC,1.64
19,CGACGTGG,0.204
20,ACCCGCAC,1.35
21,TTTCGCCG,1.83
22,GCCCGATA,1.08
23,CGCCGCCC,1.77
24,ACGCGCTA,1.54
25,TCGCGGGT,0.714

row,Sequence,relative CpG methylation activity
1,GGACGCCC,1.88
2,CCACGGCG,1.2
3,GCTCGTTT,0.464
4,TACCGACA,1.09
5,TTACGCTT,2.62
6,TACCGCGA,0.569
7,AGGCGTTG,0.253
8,GTACGAGC,2.12
9,CGTCGACG,0.437
10,TATCGCTT,1.94
11,TTGCGGAG,0.673
12,GAGCGCTG,0.969
13,TTGCGCCT,2.1
14,TACCGCTA,1.14
15,GACCGGCG,0.818
16,CCTCGGCC,1.29
17,TTCCGACC,1.93
18,TTGCGAGA,1.5
19,ATGCGGAT,1.38
20,ATACGTCC,2.56
21,TAGCGGTT,0.141
22,TGGCGGGC,0.283
23,GCCCGCAG,0.699
24,GTGCGATC,2.28
25,GGCCGGAT,0.229

row,Sequence,relative CpG methylation activity
1,ATGCGTCG,1.68
2,TGTCGAAT,0.469
3,GGTCGACC,0.281
4,TGCCGCGA,0.629
5,TAGCGGTG,0.125
6,TGGCGGGG,0.455
7,GCTCGATC,1.32
8,GTTCGGCC,1.04
9,TAGCGTGA,0.153
10,GACCGCCT,1.65
11,GTCCGCGG,0.584
12,ACGCGGGA,0.593
13,GATCGTTG,0.265
14,GTTCGGTA,0.562
15,AGTCGCTC,1.4
16,AAGCGTCG,0.966
17,GACCGAGA,0.799
18,TCGCGCAC,1.29
19,CCCCGTGG,0.357
20,CGACGCCG,1.12
21,TCACGGGC,1.6
22,CTACGGGC,1.67
